Laboratory results as given in PubChem BioAssay AID686979 (National Center for Advancing Translational Sciences (NCATS), 2013).
Several values for one entry are separate records, joined by “and”; a condition that tells them apart may be missing. Equal values may be shown once. Among all 420,000 compounds or so, about 50,000 (12%) were called active. The inconclusive results got no clear call from the source; some entries with a clear call stand among them for comparison. The call rests on the fitted dose curve; in most records, active means well fitted inhibition curve with a large enough effect; inconclusive means small, poorly fitted or top-dose-only effect; inactive means flat fitted curve, though single readings scatter. Potencies beside an inconclusive call are fits to weak or partial responses and may not hold up.

Assay: qHTS for Inhibitors of human tyrosyl-DNA phosphodiesterase 1 (TDP1): qHTS in cells in presence of CPT; further: nearly all actives have a fitted effect of over 55% in size
Settings: chicken DT40 Tdp1-/-;hTDP1 cells + 20 nM CPT, ATP luminescence, 48 h; activity change, negative = growth inhibition: at 46.2 µM (top of the series) unless noted
Summary of the method: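 Chicken DT40 Tdp1-/- cells complemented with human TDP1, 400 cells/well, exposed to compounds plus 20 nM camptothecin for at least 48 h at 37 C; viability read as ATP content by CellTiter-Glo luminescence.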
On the % scale 0 is the no-effect control and ±100 the full control effect; potency means the concentration at half of the fitted maximal effect; tags describe the fitted curve by direction and shape.

For `CCOC(=O)c1c(NC(=O)CSc2nc3c(c(=O)n(C)c(=O)n3C)n2CC)sc(C)c1C`, which Potency is on record?
Its Potency is inconclusive: 23.1 µM [inhibitor, single point].

Which Potency does the source give for `Cc1ccc(Cn2c(C(C)Nc3nc(C)cs3)nc3cc(Cl)c(Cl)cc32)cc1` (stereo not given) here?
Its Potency is inconclusive: 23.1 µM [inhibitor, single point].

With `CCc1ccc(NC(=O)C2CCCN(c3nn4cc(-c5ccc(OC)cc5)nc4s3)C2)cc1` (stereo not given) as the compound, how does the Potency read?
The Potency was inconclusive: 5.17 µM [inhibitor, partial curve].

For `CCC1Cc2c(nc(N)c3c(N)nc(N4CCOCC4)c(C#N)c23)O1` (stereo not given), which Potency is on record?
The Potency was inconclusive: 16.4 µM [inhibitor, partial curve, poor fit].

For `CCOC(=O)N1CCC(NC(=O)c2cnn3c2NC(c2ccco2)CC3C(F)(F)F)CC1` (stereo not given), which Potency is on record?
Its Potency is inconclusive: 6.51 µM [inhibitor, partial curve].

For `CCCS(=O)(=O)N1CCC(C(=O)NCCCN(CC)c2cccc(C)c2)CC1`, which Potency is on record?
The Potency was inconclusive: 16.4 µM [inhibitor, single point].

With `Cc1ccc2onc(CNC(=O)Nc3ccccc3C#N)c2c1` as the compound, how does the Potency read?
Its Potency is “inactive”.

For `COc1ccc(NC2CCCN(C(=O)c3ccc(C)c(N4CCNC4=O)c3)C2)cc1` (stereo not given), which Potency is on record?
The Potency was “inactive”.

With `COc1ccc2c(=O)c(-c3ccc(OC)c(OC)c3)coc2c1` as the compound, how does the Potency read?
Its Potency is inconclusive: 29.1 µM [inhibitor, single point].

For `COc1ccc(C(=O)NC2CC2)cc1OC1CCN(C/C=C/c2ccccc2)CC1`, which Potency is on record?
Its Potency is inconclusive: 23.1 µM [inhibitor, single point].

For `O=C(NCC(c1ccc2c(c1)OCO2)N1CCN(c2ccc(F)cc2)CC1)c1cccc([N+](=O)[O-])c1` (stereo not given), which Potency is on record?
The Potency was active: 6.51 µM.

With `O=C(N/N=C/c1ccc([N+](=O)[O-])o1)c1cn(-c2ccccc2)nc1-c1ccc(Cl)cc1` as the compound, how does the Potency read?
Its Potency is inconclusive: 29.1 µM [inhibitor, single point].

Which Potency does the source give for `CCOC(=O)N1CCN(C(=O)COc2cccc3c2CCN(Cc2cccc(C)c2)C3=O)CC1` here?
The Potency was active: 23.1 µM.

Which Potency does the source give for `CC(=O)c1ccccc1OCC(O)CN1CCN(CCN2C(=O)c3cccc4cccc(c34)C2=O)CC1` (stereo not given) here?
Its Potency is active: 6.51 µM.

With `O=C(COc1ccccc1F)N1c2ccccc2CCc2ccccc21` as the compound, how does the Potency read?
The Potency was inconclusive: 29.1 µM [inhibitor, single point].

For `Cc1c(CCC(=O)O)c(=O)oc2cc3occ(-c4ccc(F)cc4)c3cc12`, which Potency is on record?
Its Potency is “inactive”.

Which Potency does the source give for `CN(c1ccccc1)S(=O)(=O)c1ccc(Cl)c(C(=O)OCC(=O)N2CCOCC2)c1` here?
The Potency was “inactive”.

Which Potency does the source give for `CC(=O)N1C[C@H]2CON(C)[C@H]2C[C@H]1c1cccc(-c2cc(Cl)cc(Cl)c2)c1` here?
Its Potency is inconclusive: 23.1 µM [inhibitor, single point].

For `Cc1nn(-c2ccccc2)c(C)c1-c1ccccc1O`, which Potency is on record?
The Potency was inconclusive: 16.4 µM [inhibitor, single point].

With `CCOC(=O)C[N+](C)(C)CCOC1CC2CCC1(C)C2(C)C` (stereo not given) as the compound, how does the Potency read?
The Potency was active: 16.4 µM.

Which Potency does the source give for `NC(=O)Nc1ccc(/C=C2\C=Cc3ccccc32)cc1` here?
The Potency was inconclusive: 15.8 µM [inhibitor, single point].

Which Potency does the source give for `CCn1c(SCC(=O)NC2CCCCC2)nc2ccccc2c1=O` here?
Its Potency is “inactive”.

Which Potency does the source give for `CCc1noc(C)c1C(=O)Nc1cc(S(=O)(=O)N2CCOCC2)ccc1OCC(F)(F)F` here?
The Potency was “inactive”.

With `CCOC(=O)C1=C(C)OC(N)=C(C#N)C1c1cncc(-c2ccc(F)cc2)c1` (stereo not given) as the compound, how does the Potency read?
Its Potency is inconclusive: 16.4 µM [inhibitor, single point].

For `COc1ccc(C2=Nc3ccccc3OC2)cc1`, which Potency is on record?
Its Potency is active: 25.9 µM.

Which Potency does the source give for `O=C(COC(=O)c1ccccn1)c1ccc([N+](=O)[O-])cc1` here?
The Potency was inconclusive: 29.1 µM [inhibitor, single point].

Which Potency does the source give for `O=C(CN(Cc1ccco1)C(=O)c1nsc(Cl)c1Cl)NC1CCCCC1` here?
Its Potency is “inactive”.

For `CCOc1cc2[nH]c(=S)n(CCc3ccc(OC)c(OC)c3)c(=O)c2cc1OCC`, which Potency is on record?
The Potency was inconclusive: 16.4 µM [inhibitor, partial curve].

For `CCOc1ccc(NC(=O)CN2CCN(CC(=O)Nc3ccc(F)c(F)c3)CC2)cc1`, which Potency is on record?
The Potency was inconclusive: 29.1 µM [inhibitor, single point].

For `COc1cccc(CNC(=O)CCc2c(C)nc3c(c2C)c(=O)n(C)c(=O)n3C)c1`, which Potency is on record?
The Potency was “inactive”.

With `COc1ccc(NC(=O)CCN2C(=O)NC3(CCCC3)C2=O)cc1Cl` as the compound, how does the Potency read?
Its Potency is “inactive”.

Which Potency does the source give for `COc1ccc(CNc2cc(-c3cccc(NS(C)(=O)=O)c3)ncn2)c(OC)c1` here?
Its Potency is inconclusive: 29.1 µM [inhibitor, single point].

For `c1coc(-c2cc3nc(NCc4ccc5c(c4)OCO5)ccn3n2)c1`, which Potency is on record?
Its Potency is inconclusive: 18.4 µM [inhibitor, single point].

Which activity change, negative = growth inhibition does the source give for `CSc1nc2nc(-c3ccccc3)cc(C(F)(F)F)n2n1` here?
Its activity change, negative = growth inhibition is inconclusive: -32% [inhibitor].

For `CS(=O)(=O)c1nc(S(=O)(=O)c2ccc(Cl)cc2)c(N2CCOCC2)s1`, which Potency is on record?
The Potency was inconclusive: 23.1 µM [inhibitor, single point].

With `CCC(=O)c1cn(CC(=O)Nc2cc(C)ccc2C)c2ccccc12` as the compound, how does the Potency read?
Its Potency is “inactive”.

For `COc1cc(/C=C(/C#N)c2nc3ccccc3[nH]2)ccc1OCC(=O)Nc1ccccc1C`, which Potency is on record?
The Potency was active: 3.26 µM.

Which Potency does the source give for `CCOc1ccccc1NC(=O)Cc1csc(COc2cccc(C)c2)n1` here?
Its Potency is inconclusive: 23.1 µM [inhibitor, single point].

Which Potency does the source give for `Cc1c(N2C(=O)C3C4C=CC(C4)C3C2=O)c(=O)n(-c2ccccc2)n1C` (stereo not given) here?
Its Potency is “inactive”.

Which Potency does the source give for `COc1ccccc1C(=O)C1CCCN(C(=O)C2=CC(=O)CC(C)(C)O2)C1` (stereo not given) here?
Its Potency is “inactive”.

With `CCn1cc(C(=O)O)c(=O)c2cnc(N3CCN(C(=S)Nc4ccccc4)CC3)nc21` as the compound, how does the Potency read?
The Potency was inconclusive: 29.1 µM [inhibitor, single point].

For `O=C(NCCc1ccc(Cl)cc1)c1ccc(Cn2c(=O)[nH]c3ccccc3c2=O)cc1`, which Potency is on record?
Its Potency is active: 6.51 µM.

For `Cc1cccc(C)c1OCc1cc(C(=O)NCC2COCCO2)no1` (stereo not given), which Potency is on record?
Its Potency is inconclusive: 29.1 µM [inhibitor, single point].

With `CC(=O)c1ccc(NS(=O)(=O)c2cnc(N)nc2)cc1` as the compound, how does the Potency read?
The Potency was “inactive”.

For `CC1=NOC(=O)/C1=C/c1ccc(O)cc1`, which Potency is on record?
The Potency was inconclusive: 29.1 µM [inhibitor, single point].

For `CCC1(CCC(C)C)SC(N)=NC1=O` (stereo not given), which Potency is on record?
The Potency was “inactive”.

Which Potency does the source give for `O=C1CC/C=C\C[C@@H](CC(=O)N(CCO)Cc2ccccc2)C(=O)NCCO1` here?
The Potency was “inactive”.

With `COc1cccc2sc(Nc3nc(-c4cc5ccccc5oc4=O)cs3)nc12` as the compound, how does the Potency read?
Its Potency is active: 4.61 µM.

Which Potency does the source give for `COc1ccc(CC(=O)Nc2ccc(S(=O)(=O)N3CCN(C)CC3)cc2)cc1` here?
The Potency was “inactive”.

Which Potency does the source give for `O=C(Nc1ccccc1)[C@@H]1CC=C[C@@H]2CCN(Cc3ccc(Cl)c(Cl)c3)C(=O)[C@@H]21` here?
The Potency was inconclusive: 25.1 µM [inhibitor, single point] and inconclusive: 20.6 µM [inhibitor, single point].

With `COc1ccc2[nH]cc(CCNC(=O)Nc3cccc(F)c3)c2c1` as the compound, how does the Potency read?
Its Potency is inconclusive: 29.1 µM [inhibitor, single point].

With `COc1cccc(C2C(C(=O)c3cc4ccccc4o3)=C(O)C(=O)N2c2cc(C)on2)c1OC` (stereo not given) as the compound, how does the Potency read?
The Potency was inconclusive: 29.1 µM [inhibitor, single point].

For `O=C(NC(=S)Nc1ccccc1Br)c1cccnc1`, which Potency is on record?
The Potency was “inactive”.

Which Potency does the source give for `O=C(CCC1CCCCC1)Nc1ccc(C(=O)c2ccncc2)cc1` here?
Its Potency is inconclusive: 18.4 µM [inhibitor, single point].

For `O=S(=O)(c1c(F)cccc1F)N1CCCC2CCCCC21` (stereo not given), which Potency is on record?
Its Potency is inconclusive: 23.1 µM [inhibitor, single point].

Which Potency does the source give for `CCOc1ccc(CN2C(=O)c3ccccc3Sc3ccc(C(=O)NCCc4ccccc4)cc32)cc1` here?
The Potency was “inactive”.

With `CC(C)=CCC(C)(C)C1OCCN1C(=O)Nc1ccccc1` (stereo not given) as the compound, how does the Potency read?
The Potency was inconclusive: 14.6 µM [inhibitor, partial curve].

For `CC(=O)N=Cc1c(C)c(C#N)c(=O)n(C)c1O`, which Potency is on record?
Its Potency is “inactive”.

Which Potency does the source give for `Cc1cc(C(=O)N[C@H](c2ccccc2)[C@@]2(C)C[C@@H]2[C@@H](C)C(=O)Nc2ccc3ccccc3c2)no1` here?
Its Potency is inconclusive: 29.1 µM [inhibitor, single point].

Which Potency does the source give for `Cc1cccc(C)c1NC(=O)Cn1cnc2c(=O)n(C)c(=O)n(C)c21` here?
The Potency was “inactive”.

With `CC1(C(=O)Nc2ccc3[nH]ncc3c2)CCN1C(=O)C/C=C/c1ccccc1` (stereo not given) as the compound, how does the Potency read?
The Potency was inconclusive: 29.1 µM [inhibitor, single point].

For `COc1cc(CCC(=O)N2CCN(S(=O)(=O)c3ccc(C)c(C)c3)CC2)cc(OC)c1OC`, which Potency is on record?
Its Potency is inconclusive: 7.31 µM [inhibitor, full curve, poor fit].

Which activity change, negative = growth inhibition does the source give for `CCC(=O)Nc1c2c(nn1-c1ccccc1)CSC2` here?
Its activity change, negative = growth inhibition is inconclusive: -2.12% [inhibitor].

With `CC(C)c1cccc(C(C)C)c1NC(=O)Cn1c(=O)cnc2ccccc21` as the compound, how does the Potency read?
The Potency was “inactive”.

With `CSc1ccc(CN(C)C(=O)c2cc(S(=O)(=O)NCc3ccccc3)ccc2C)cc1` as the compound, how does the Potency read?
The Potency was inconclusive: 23.1 µM [inhibitor, single point].

Which Potency does the source give for `Cc1ccccc1S(=O)(=O)NC(=O)C1(C)CCN1C(=O)C1(c2ccc(Cl)cc2)CC1` (stereo not given) here?
Its Potency is “inactive”.

For `CCc1ccc(CN(C)C(=O)c2cc(S(=O)(=O)N3CCN(CC)CC3)ccc2Cl)cc1`, which Potency is on record?
Its Potency is inconclusive: 23.1 µM [inhibitor, single point].

With `Cc1ccc(NC(=O)Nc2nc3ccccc3s2)cc1NC(=O)Nc1nc2ccccc2s1` as the compound, how does the Potency read?
The Potency was inconclusive: 20.6 µM [inhibitor, single point].

Which activity change, negative = growth inhibition does the source give for `COC(=O)c1c(NC(=O)COc2c(C)cccc2C)sc2c1CCCC2` here?
The activity change, negative = growth inhibition was inconclusive: -30.5% [inhibitor].

Which Potency does the source give for `CC1CCN(S(=O)(=O)c2ccc(C(=O)Nc3nc4ccc(F)cc4s3)cc2)CC1` here?
The Potency was inconclusive: 23.1 µM [inhibitor, single point].
